Test results reported in the CheMixHub viscosity set.
Further values from the same series stand in other lists.

Assay: xn = mol fraction of the nth substance listed
Details: 323.15 K, 101.33 kPa

CC(C)CC(C)(C)C + C1CCCCC1
Details	viscosity [mPa·s]
x1 = 0.2147	0.5072
x1 = 0.2557	0.4944
x1 = 0.2984	0.482
x1 = 0.343	0.4687
x1 = 0.3895	0.4559
x1 = 0.4382	0.4457
x1 = 0.4891	0.4358
x1 = 0.5423	0.4251
x1 = 0.5982	0.4147
x1 = 0.6569	0.4059
x1 = 0.7185	0.3975
x1 = 0.7834	0.3888
x1 = 0.8517	0.3804
x1 = 0.9238	0.3727
